# Results taken from PMC4336329 (PLoS ONE, 2015).
# Out of some 310,000 compounds screened, about 14,000 (4.5%) showed an effect of 50% or more. The effect is printed as a negative number. This is one part of the list.
# Target: human ether-à-go-go-related gene (hERG) potassium channel (human, UniProt Q12809)
# Assay: primary screen, population patch clamp on CHO cells stably expressing hERG
# 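Further: peak tail current of the secondary pulse compared with the same well before compound.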
# Sequence of human ether-à-go-go-related gene (hERG) potassium channel (Q12809 whole entry, looked up): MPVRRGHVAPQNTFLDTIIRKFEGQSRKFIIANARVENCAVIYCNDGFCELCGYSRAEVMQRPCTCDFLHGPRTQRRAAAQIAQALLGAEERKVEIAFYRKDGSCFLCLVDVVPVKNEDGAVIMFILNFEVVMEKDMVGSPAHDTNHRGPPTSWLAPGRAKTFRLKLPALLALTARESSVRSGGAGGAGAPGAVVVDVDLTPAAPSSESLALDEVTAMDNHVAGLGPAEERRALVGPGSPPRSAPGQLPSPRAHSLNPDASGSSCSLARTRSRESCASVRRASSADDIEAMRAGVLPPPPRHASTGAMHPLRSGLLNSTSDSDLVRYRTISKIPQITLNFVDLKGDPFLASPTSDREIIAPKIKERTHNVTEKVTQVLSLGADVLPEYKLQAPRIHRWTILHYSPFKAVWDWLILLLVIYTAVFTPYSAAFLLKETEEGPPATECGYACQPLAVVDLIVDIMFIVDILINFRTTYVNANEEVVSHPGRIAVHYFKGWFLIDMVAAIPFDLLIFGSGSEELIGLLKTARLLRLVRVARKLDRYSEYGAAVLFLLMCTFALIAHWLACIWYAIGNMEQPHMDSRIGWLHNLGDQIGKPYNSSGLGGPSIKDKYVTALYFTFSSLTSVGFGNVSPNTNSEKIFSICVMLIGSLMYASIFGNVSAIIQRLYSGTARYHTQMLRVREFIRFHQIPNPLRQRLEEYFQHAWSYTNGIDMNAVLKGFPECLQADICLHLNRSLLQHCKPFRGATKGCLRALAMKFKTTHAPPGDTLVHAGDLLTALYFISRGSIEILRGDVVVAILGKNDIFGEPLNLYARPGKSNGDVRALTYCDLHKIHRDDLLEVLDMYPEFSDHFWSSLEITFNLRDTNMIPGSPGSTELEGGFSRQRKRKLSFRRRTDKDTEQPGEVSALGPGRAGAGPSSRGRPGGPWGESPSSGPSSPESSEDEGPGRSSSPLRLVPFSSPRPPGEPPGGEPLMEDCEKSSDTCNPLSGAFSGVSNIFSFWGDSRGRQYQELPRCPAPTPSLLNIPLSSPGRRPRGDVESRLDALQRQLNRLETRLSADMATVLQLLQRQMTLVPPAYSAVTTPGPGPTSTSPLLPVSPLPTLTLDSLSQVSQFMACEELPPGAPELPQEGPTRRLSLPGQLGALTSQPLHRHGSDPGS
row,Structure (SMILES),"hERG current change (%, negative = inhibition) at 10uM [%]"
1,Cc1c(Cl)c([N+](=O)[O-])nn1CCCC(=O)N1CCN(c2ccccc2)CC1,-58
2,Nc1ccccc1Nc1ccc([N+](=O)[O-])cc1[N+](=O)[O-],-28.8
3,Cc1c(-c2ccc(F)cc2)[n+](=O)c2c(n1[O-])CCCCC2,17.5
4,Nc1nc2n(n1)C(c1cccs1)CC(c1ccccc1)N2 (stereo not drawn),-23.5
5,Cc1ccc(S(=O)(=O)N2CCC(=O)N(CCOCc3ccccc3C)CC2)cc1,1.16
6,O=C(C1=C[C@H](c2csc3ccccc23)C[C@H](OCCCCO)O1)N1CCN(Cc2ccc3c(c2)OCO3)CC1,-12.8
7,Cc1ccc(C)c(NC(=O)Cn2nc(-c3ccccc3)nc2-c2ccccc2)c1,8.98
8,CCCc1nnc(SCCSc2nnc(CCC)n2N)n1N,6.88
9,Cc1c(Cl)cccc1N(Cc1ccc(C(=O)O)cc1)S(=O)(=O)c1ccccc1,-4.17
10,CCN1CCN(C(c2ccccc2F)c2nnnn2Cc2ccc3c(c2)OCO3)CC1.Cl (stereo not drawn),-37.6
11,O=C(Nc1ccnn1C1CCN(Cc2cc3ccccc3[nH]2)CC1)C1CCOC1 (stereo not drawn),-31.5
12,O=C(CS(=O)(=O)c1cccc(Cl)c1)Nc1ccccc1Cl,1.6
13,Cc1cc(C)nc(NS(=O)(=O)c2ccc(N3C(=O)C4CC=C(Cl)CC4C3=O)cc2)n1 (stereo not drawn),1.81
14,CCOc1ccc(N2CC(C(=O)Nc3ccc(S(=O)(=O)N4CCOCC4)cc3)CC2=O)cc1 (stereo not drawn),-8.96
15,COC(CNC(=O)C1CCCCC1C(=O)O)OC (stereo not drawn),-1.45
16,COc1cccc(/C=C/C(=O)OCC(=O)Nc2cc(S(=O)(=O)N3CCOCC3)ccc2C)c1,-1.3
17,COc1ccc(/C=C2\N=C(C(C)(C)C)OC2=O)c(OC)c1,19.5
18,N#Cc1ccccc1Oc1ccc(S(=O)(=O)N2CCCCC2)cn1,-79.6
19,CCc1ccccc1OCC(=O)Nc1cc(S(=O)(=O)N(CC)CC)ccc1N1CCOCC1,-7.83
20,Cc1nc(CCNS(=O)(=O)c2cccs2)cs1,2.51
21,COc1ccc2ccccc2c1CNC(C)CCc1ccccc1.O=C(O)C(=O)O (stereo not drawn),-77.8

row,Structure (SMILES),"hERG current change (%, negative = inhibition) at 10uM [%]"
1,O=C(c1ccc(Cl)cc1)C1CCCN(Cc2cccc3cccnc23)C1 (stereo not drawn),-75.9
2,N#CC(C#N)=Cc1ccc(OC(=O)c2ccccn2)cc1,1.46
3,Nc1nnc(SCCOc2ccccc2)s1,-10.1
4,O=C(COc1cccc2cccnc12)N/N=C/c1ccccc1O,-5.32
5,C[C@H]1[C@H](OC(=O)CCC(=O)NCc2ccc(C(=O)O)cc2)O[C@@H]2O[C@@]3(C)CC[C@H]4[C@H](C)CC[C@@H]1C24OO3,-0.65
6,CCCCNC(=O)OCC(CC)NC(=O)OC(C)C (stereo not drawn),9.29
7,COc1ccc(NC(=O)CSc2nnc(N)s2)cc1,19
8,CCN1CCN(C(=O)C23CCC(C)(C(=O)C2Br)C3(C)C)CC1 (stereo not drawn),1.48
9,CN1CCN(S(=O)(=O)c2ccc(N(C)Cc3ccc(C(F)(F)F)cc3)c([N+](=O)[O-])c2)CC1,-5.45
10,Cc1cccc(NS(=O)(=O)c2cccc(C(=O)Nc3cccc(C(=O)O)c3)c2)c1,15.4
11,O=C(c1nc2ccccn2c1CN1CCCC(O)C1)N1CCN(C2CCCCC2)CC1 (stereo not drawn),-13
12,COc1ccc(C2CC(=O)c3cnc(NC(=O)c4ccccc4OC)nc3C2)c(OC)c1 (stereo not drawn),-27.3
13,C/C(=N\NC(=O)c1ccncc1)c1c(O)[nH]c(=O)[nH]c1=O,-1.22
14,CC(=O)N1c2ccc(S(=O)(=O)NCCC(=O)NCc3ccc(F)cc3)cc2CC1C (stereo not drawn),14.1
15,N#C/C(=C\c1ccc(-c2ccccc2C(=O)O)o1)c1nc2ccccc2[nH]1,15.2
16,CCCN(C(=O)c1cccs1)c1c(N)n(Cc2ccccc2)c(=O)[nH]c1=O,-8.81
17,N#C/C(=C\c1ccc(OCc2ccc(Cl)cc2)cc1)C(=O)Nc1cccc(C(=O)O)c1,18.8
18,CC(C)(C)c1ccc(-c2nc(N)nc(N)n2)cc1,17.8
19,CCCCn1c(CN2C(=O)c3ccccc3C2=O)nc2ccccc2c1=O,0.598
20,CN(C(=O)CN1CCN(c2cnn(-c3ccccc3)c(=O)c2Cl)CC1)C1CCS(=O)(=O)C1 (stereo not drawn),-6.77
21,Cc1noc(C)c1CSCC(=O)OCC(=O)N1CC(=O)Nc2ccccc21,-72.4
